In PubChem BioAssay AID1476 (National Center for Advancing Translational Sciences (NCATS), 2009):
Among all 200,000 compounds or so, about 4,500 (2.2%) were called active. The inconclusive results got no clear call from the source; some entries with a clear call stand among them for comparison. Calls follow the shape of the dose curve; as a rule, active = well fitted inhibition curve with a large enough effect; inconclusive = small, poorly fitted or top-dose-only effect, or effect the other way; inactive = flat fitted curve, though single readings scatter. Potencies of inconclusive entries are doubtful fits and often do not repeat.

target: Cruzipain (Trypanosoma cruzi) (UniProt P25779); assay: qHTS Assay for Promiscuous and Specific Inhibitors of Cruzain (without detergent); settings: purified cruzain, Z-FR-AMC fluorescence, no detergent; also: nearly all actives have a fitted effect of over 40% in size;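 as to max response, negative = inhibition: plate controls were enzyme without inhibitor for no effect and buffer without enzyme for full effect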
Summary of the method: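 Purified cruzain at 1.5 nM, pre-incubated 15 min with compound at room temperature in 100 mM sodium acetate pH 5.5, 5 mM DTT, 0.00005% Triton X-100. Reaction started with 2 uM Z-FR-AMC; AMC fluorescence increase over 60 s gives rate.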
Potency is read from the fitted curve at half-maximal effect; tags tell the direction and shape of the fitted curve.

Sequence of UniProt P25779 (P25779 whole entry, looked up): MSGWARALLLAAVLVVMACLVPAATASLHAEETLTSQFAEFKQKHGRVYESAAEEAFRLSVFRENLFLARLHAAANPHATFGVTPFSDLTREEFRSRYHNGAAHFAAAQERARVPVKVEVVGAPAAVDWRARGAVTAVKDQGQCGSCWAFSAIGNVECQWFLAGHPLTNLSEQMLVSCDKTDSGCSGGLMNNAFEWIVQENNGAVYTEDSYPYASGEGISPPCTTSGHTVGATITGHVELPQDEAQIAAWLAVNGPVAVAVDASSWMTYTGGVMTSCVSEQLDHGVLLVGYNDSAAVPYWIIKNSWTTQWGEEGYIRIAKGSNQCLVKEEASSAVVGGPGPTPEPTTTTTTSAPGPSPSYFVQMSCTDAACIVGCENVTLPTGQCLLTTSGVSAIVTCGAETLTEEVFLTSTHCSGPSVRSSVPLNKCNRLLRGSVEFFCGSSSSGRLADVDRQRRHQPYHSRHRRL

SMILES | Potency | max response, negative = inhibition
CCOC(=O)C1CCCN(C(=O)c2cc3nc(-c4cccc(OC)c4)cc(C(F)(F)F)n3n2)C1 (stereo not drawn) | inconclusive: 25.1 µM [activator, partial curve] | 
O=C(Cc1ccccc1)Nc1nnc(-c2ccco2)s1 | inconclusive: 25.1 µM [inhibitor, single point] | 
C[C@@H]1CC2(OC[C@]3(C)O[C@H]23)O[C@H]2C[C@@]3(C)[C@@H]4CC[C@H]5C(C)(C)C(O[C@@H]6OC[C@@H](O)[C@H](O)[C@H]6O)CC[C@@]56C[C@@]46CC[C@]3(C)[C@@H]12 (stereo partly drawn) | inconclusive: 20 µM [activator, partial curve] | 
CCOC(=O)CCCN1C(=O)CCn2nc(-c3cn(C)c4ccccc34)cc21 | inconclusive: 25.1 µM [activator, partial curve] | 
Cc1c(C(c2ccc(Br)cc2)c2c(O)c3ccccc3oc2=O)c(=O)n(-c2ccccc2)n1C (stereo not drawn) | inconclusive: 31.6 µM [inhibitor, single point] | 
COc1ccc(-n2c(N)c(C(=O)NCc3ccco3)c3nc4ccccc4nc32)cc1 | inconclusive: 31.6 µM [activator, single point] | 
CCN(CC)S(=O)(=O)c1ccc(NC(=O)C2c3ccccc3Oc3ccccc32)cc1 | inconclusive: 31.6 µM [inhibitor, single point] | 
O=C(NC1CCCCC1)c1cc2nc(-c3ccco3)cc(C(F)(F)F)n2n1 | inconclusive: 25.1 µM [activator, single point] | 
C[C@H]1C=C2C=C[C@H](C)[C@H](CC[C@@H]3C[C@@H](O)CC(=O)O3)[C@H]2[C@@H](OC(=O)[C@@H](C)CCO)C1 | inconclusive: 7.94 µM [activator, partial curve] | 
COc1ccccc1NC(=O)CSc1nc2ccccc2cc1Cc1ccccc1 | active: 20 µM | 
COc1ccc(-c2cc(C)no2)cc1S(=O)(=O)NC1CCC(C)CC1 (stereo not drawn) |  | inactive: -6.49%
COc1ccc(NC(=O)CSc2nccn2-c2ccccc2)c(OC)c1 | inconclusive: 5.01 µM [inhibitor, single point] | 
COc1ccc(-c2cc(OC)c3c(C)oc(C)c3c(=O)c2)cc1OC | inconclusive: 39.8 µM [activator, single point] | 
Cc1cccn2cc(CNc3ccccc3)nc12 | inconclusive: 0.501 µM [inhibitor, partial curve] | 
Cc1c(-c2ccccc2)nc2ccccc2c1C(=O)OCC(=O)Nc1ncc(C(F)(F)F)cc1Cl | inconclusive: 39.8 µM [inhibitor, single point] | 
CC(O)C1CCC2C3CC[C@H]4CC(O)CCC4(C)C3CC3(OCCO3)C12C (stereo partly drawn) | inconclusive: 31.6 µM [activator, single point] | 
CC(C)NC(=O)C1CCN(C(=O)c2cc3sccc3n2Cc2ccc(F)cc2)CC1 | inconclusive: 31.6 µM [activator, single point] | 
O=C(CSc1nc2ccccc2c(=O)n1-c1ccc(Cl)cc1)c1ccco1 | inconclusive: 31.6 µM [inhibitor, single point] | 
COC(=O)N[C@H](c1ccccc1)[C@@]1(C)C[C@@H]1[C@@H](C)C(=O)Nc1ccc2ccccc2c1 |  | inactive: -1.14%

SMILES | Potency | max response, negative = inhibition
O=C(COC(=O)CN1C(=O)C2CC=CCC2C1=O)Nc1cc(C(F)(F)F)ccc1N1CCOCC1 (stereo not drawn) | inconclusive: 25.1 µM [activator, single point] | 
COc1ccc(Cl)cc1NC(=O)NCCc1c(C)nn(C)c1C |  | inactive: -10.7%
Cc1cccc(Cc2c(C)nc3nc(SCc4ccccc4F)nn3c2C)c1 | inconclusive: 31.6 µM [inhibitor, single point] | 
COc1ccccc1NC(=O)CSc1oc(-c2ccccc2)nc1S(=O)(=O)c1ccccc1 | inconclusive: 39.8 µM [inhibitor, single point] | 
COc1ccc2c(c1)c1c(c(=O)n(-c3cccc(C)c3)c(=O)n1CC(=O)NCC1CCCO1)n2C (stereo not drawn) |  | inactive: 4.92%
CC(=O)OC1CCC2C3CCc4cc(O)ccc4C3CCC12C (stereo not drawn) | inconclusive: 39.8 µM [inhibitor, single point] | 
COc1cc(-c2oc3ccc(C)cc3c(=O)c2O)cc(OC)c1OC | inconclusive: 25.1 µM [activator, single point] | 
CCOc1ccc(-c2nnc(SCC(=O)N3CCN(c4ccccc4)CC3)o2)cc1 | inconclusive: 25.1 µM [inhibitor, single point] | 
Cc1cc(-c2ccc(N3CCOCC3)cc2)nc2ccccc12 |  | inactive: 2.57%
CN(Cc1ccccc1)C(=O)c1cc(-c2cccc(Cl)c2)on1 |  | inactive: -2.87%
COCCNC(=O)C(c1ccc(C)o1)N(Cc1ccc(F)cc1)C(=O)Cn1nnc2ccccc21 (stereo not drawn) | inconclusive: 31.6 µM [activator, single point] | 
Cc1ccc(N2C(=O)CC(Sc3nc(-c4ccccc4)c4cc(Cl)ccc4n3)C2=O)c(C)c1 (stereo not drawn) | active: 15.8 µM | 
CCN1C(=O)c2ccccc2S(=O)c2ccc(C(=O)N3CCN(c4ccccc4OC)CC3)cc21 (stereo not drawn) | inconclusive: 39.8 µM [activator, single point] | 
Cc1ccc(C(=O)NC(=S)Nc2cccc(NC(=O)c3ccccc3Cl)c2)cc1[N+](=O)[O-] | inconclusive: 39.8 µM [inhibitor, single point] | 
Cc1cccc2sc(NNC(=O)c3ccc(S(=O)(=O)N4CCc5ccccc5C4)cc3)nc12 | active: 7.94 µM | 
Cc1cc(C)nc(NS(=O)(=O)c2ccc(NC(=O)CN3C(=O)S/C(=C\c4ccccc4)C3=O)cc2)n1 | inconclusive: 39.8 µM [activator, single point] | 
CCCCn1c(N2CCC(Cc3ccccc3)CC2)nc2c1c(=O)[nH]c(=O)n2C | inconclusive: 39.8 µM [activator, single point] | 
O=c1/c(=C/c2ccccn2)sc2nc3ccccc3n12 | inconclusive: 39.8 µM [inhibitor, single point] | 
COc1cccc(C2CC(c3cccs3)=NN2C(=O)CSC2=NN3CCCC(=O)N=C3S2)c1OC (stereo not drawn) | inconclusive: 39.8 µM [activator, single point] | 
